Test results published in the supplement of paper PMC11417369.
± gives the standard deviation of the averaged measurements. Some of the results follow.

system: PfAP2-EXP AP2 domain (GST-tagged); assay: gcPBM binding intensity (ln(normalized median fluorescence intensity)); higher = stronger DNA binding
Summary of the method: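 Plasmodium falciparum DNA-binding domains carrying a GST tag were expressed in E. coli and applied for 1 h, at about 25 μg on average, to an Agilent 4 × 180k array. The array held primer-extended double-stranded 36-bp intergenic genomic probes together with negative controls, and binding took place in 1× PBS with 1% milk, 0.2 mg/ml BSA, 0.5% salmon testes DNA and 0.03% Triton X-100. An Alexa488 anti-GST antibody detected bound protein, and the array was scanned at 488 nm. Binding intensity is taken as the highest Masliner-normalised natural-log median intensity across replicate spots of either probe orientation.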

| Sequence | gcPBM binding intensity (ln) |
| --- | --- |
| TATCCTTATATTTGCACACACACACTAGAAAATGAA [CACACA_site4714] | 9.025 ± 0.078 |
| ATAATAAAATAACTAGTGCATATTCAAAGGATTCAG | 8.74 ± 0.26 |
| AATGTATAAATCCATACACACATAAATTTTAATAAT [CACACA_site2363] | 8.32 ± 0.47 |
| AAAAAAATTAAAAATTAAAATTAAAAATAATATATA [GTGCAC_negctrl_site466] | 8.12 ± 0.57 |
| TTTATATTTATGATGGGTACACAAAATTTTACCCAT [XGTACX_site1504] | 8.7 ± 0.28 |
| TTCATAAAATGTGTCTGTACGTAAATGTATTACACT [XGTACX_site3179] | 8.54 ± 0.37 |
| CTGTCTGCAGATATGGTGCATTTGTAAGATCTTACA [GTGCAC_site9870] | 8.99 ± 0.24 |
| TAATTTCTTTAGGGGGTGCTTTTATAGTTTTTATTA | 10.4 ± 0.54 |
| ATATATATATATATATGTACACATAAAAAGAAAGAA [XGTACX_site1603] | 10.2 ± 0.21 |
| AACATTATATATTGCAGTACTCCCATATGTTGATAA [XGTACX_site3119] | 8.97 ± 0.38 |
| TATATACCTATATACACACACATATATTATAGATAT [CACACA_site6266] | 8.35 ± 0.34 |
| TTTAGTTGTGAGAATTGTACATATTTTCCTTTTACC [XGTACX_site7291] | 8.59 ± 0.49 |
| TATATATATGAACAATGTACGTATAATATTTTTATT [XGTACX_site7561] | 8.55 ± 0.37 |
| GATCTATACTATAATACACACATTTGATGAATGTAA [CACACA_site6163] | 8.44 ± 0.34 |
| GCAATTTTTTTTAAGAGTACTAATATATTATAGTGG [XGTACX_site7316] | 8.39 ± 0.35 |
| TTTTTTTAATAGTGTGCACACAATATACAGAAAAAA [CACACA_site8399] | 9.08 ± 0.18 |
| TTTTTTTTCATTTTATGTACACATAATTTAATATAT [XGTACX_site5768] | 8.71 ± 0.27 |
| CATAATTTAAAAAAGGTGCAAAATGGATAATATATA [GTGCAC_site9657] | 9.33 ± 0.16 |
| CATACATACATACATACATGCATACATACATACATA [TGCATGCA_site218] | 9.3 ± 0.26 |
| ATATATATATATATATGTACATATGTTTGTTTCCGC [XGTACX_site5167] | 10.3 ± 0.21 |
| ATATACATATATATATGTACTTATTTATTTATTTAT [XGTACX_site2532] | 8.56 ± 0.26 |
| AAAAAGTGACTCCTTACACACTTTACATAATTTAGG [CACACA_site8176] | 8.54 ± 0.43 |
| TGAAAAAAAAAATACACACACGAGTTGTTATACATA [CACACA_site7486] | 8.38 ± 0.46 |

| Sequence | gcPBM binding intensity (ln) |
| --- | --- |
| ATTAAAAAAATTGGCACACATAAAAATATATAAAAA [CACACA_site2748] | 8.77 ± 0.33 |
| GTTTTTAATGTTTTGACATGCAATATTAAAAATAAT [TGCATGCA_site174] | 8.8 ± 0.33 |
| AACAGATATGAATAGAAAAAAAAAAATGGCCCATAT [TGCATGCA_negctrl_site443] | 8.4 ± 0.52 |
| TATAATAATAAAAACACACACGTTGATTGTATTAGC [CACACA_site5336] | 8.47 ± 0.55 |
| TATAATGATAATAATAGTACACATTAGAACGGGAGG [XGTACX_site2563] | 8.98 ± 0.23 |
| TCTTTTTTTTATTATATCATTGAAATGTTAAAACGA [XGTACX_negctrl_site473] | 8.43 ± 0.42 |
| CCTATTATTTCTAAAACACACAAAAATATAAAAGAA [CACACA_site2708] | 8.69 ± 0.53 |
| ATAATATTATTTAAAAGTACTAACAAAAGAATATTA [XGTACX_site4989] | 8.61 ± 0.39 |
| TTTTGATAGAAGTGTTCTAGGAATTCAACTGTAATA [GTGCAC_negctrl_site585] | 8.37 ± 0.49 |
| ATTAAAAAAAATATATATGTATAAAACAAGCAAAAT [XGTACX_negctrl_site474] | 8.82 ± 0.49 |
| GACCACTTTAGGATTTGTACACATATTATATATGCA [XGTACX_site6579] | 8.84 ± 0.4 |
| TACACAAACAAACACACACACACACCCCCACAAAAA [CACACA_site2428] | 9.65 ± 0.51 |
| ATAAAAAAAAATAACACACAGACATAAGAATAAATA [CACACA_site4162] | 8.84 ± 0.5 |
| TAGCCATTTTTATATTGTACTTATATAATCACATTT [XGTACX_site4407] | 8.72 ± 0.4 |
| ATATAAGAAAAGCACACACACACAAAAAAAAAAAAA [CACACA_site2827] | 8.41 ± 0.65 |
| ATTCAAAAGATGTATACACACATGTGTATAATATAA [CACACA_site7197] | 8.4 ± 0.26 |
| AATAATATATATATAATACACACTATTATAATCACA [CACACA_site1310] | 8.34 ± 0.38 |
| TTTTAATGTACCAGTGTGCACCTTGCGTACATATTA [GTGCAC_site9957] | 9.28 ± 0.45 |
| GCTTATAAAGGCAGAAGTACTGTATTCCTATATATA [XGTACX_site8865] | 8.38 ± 0.28 |
| AAAAAAAAAAAAAAATGTACATATGGTATGCATATA [XGTACX_site3225] | 8.68 ± 0.57 |
| AATAATAAAAAATATACACACATATATATATATATA [CACACA_site25] | 10.2 ± 0.37 |
| TTGGCATACGGACACACACACACACCCAGACATATA [CACACA_site4492] | 8.63 ± 0.59 |
| TATACCTATAAATACACACACATATAAATAAATATA [CACACA_site6153] | 8.6 ± 0.42 |

| Sequence | gcPBM binding intensity (ln) |
| --- | --- |
| TTATACAAATTCATGGGTACAAACAAACATATATCA [XGTACX_site6237] | 8.77 ± 0.52 |
| AAAATATATACTCCATCACACACCAAAAAGAAAAAA [CACACA_site2542] | 8.58 ± 0.58 |
| ATACATAAATACAAACGTACATACATACATACATAC [XGTACX_site7824] | 9.32 ± 0.25 |
| CAGCTCTTAAGAATTACACACATATACACATATATA [CACACA_site7524] | 8.34 ± 0.31 |
| GCAACACAAAAAATTACACACAAAAAAAATATATTA [CACACA_site916] | 8.29 ± 0.61 |
| TCCTTTATTTTTAAAGTGCATATACATGTACATTAT [GTGCAC_site9445] | 8.72 ± 0.3 |
| GAAGAAAAAAAATATACACACATACGATCATACATA [CACACA_site5227] | 8.54 ± 0.42 |
| GTGCCATTTAAAAAATGTACAAGAAAATGTTCATCA [XGTACX_site2865] | 8.36 ± 0.43 |
| TATTTTAATTTTTTTTTGTTTTTTCTAATACATGTA [CACACA_negctrl_site1399] | 8.32 ± 0.59 |
| TGGTATTGAATTTTTTGTACACATAAAATATATATA [XGTACX_site7614] | 8.37 ± 0.3 |
| ACATATGTTAAAAAGGCATGCATTCTTTTTATTTTA [TGCATGCA_site1043] | 8.86 ± 0.26 |
| ATTTTATTTTCTCACACACACATATATATATATATA [CACACA_site5781] | 10.4 ± 0.4 |
| TTTTTTTTGGTATAATGTACATTTTCACTTATGTAT [XGTACX_site3259] | 8.7 ± 0.4 |
| ACCAAAAAAAAAAAAAAAAAAATATACATATATATA [GTGCAC_negctrl_site582] | 8.41 ± 0.11 |
| TATATATATATATATTGTACTAGTGCATATATATAC [XGTACX_site7926] | 10 ± 0.24 |
| ACGTGATAAATAAATACATGCATAGAAAGATGCATA [TGCATGCA_site91] | 8.77 ± 0.29 |
| TACAATGAAAAAATAACATGCAATTATATTTCTCTT [TGCATGCA_site833] | 8.3 ± 0.35 |
| TTTAAATATTTTAATACACACACGATATGTACAAAA [CACACA_site4455] | 8.52 ± 0.38 |
| ATAACATATTTCTTTTGTACTCAAAATAAAATTAAT [XGTACX_site2479] | 8.29 ± 0.33 |
| AAATATATTTTATTTTGTACTTATGTATAAAATATA [XGTACX_site914] | 8.38 ± 0.33 |
| AATTTTGTTGAGCACACACACATACATACATACATA [CACACA_site3154] | 8.72 ± 0.42 |
| ATTAAATTTCCTTGAGTGCACATTTTGTTAAAATAT | 8.875 ± 0.021 |
| ACTTTATTTTCCTGTACACACATTTGACATATTAAA [CACACA_site3378] | 9.36 ± 0.39 |

| Sequence | gcPBM binding intensity (ln) |
| --- | --- |
| AAAAACAAAAAAAAAACACACAATTCTAGTTATTTT [CACACA_site2767] | 8.09 ± 0.52 |
| CACCAAACTAAATGTACACACATACATAAATATAAA [CACACA_site4765] | 8.6 ± 0.45 |
| TTTTTTTTCCTAATGTGTACTAAAAATGAACAATAA [XGTACX_site5248] | 8.62 ± 0.13 |
| ATATTTTTTTCATAGACACACACAATATATCTGTTT [CACACA_site8993] | 8.63 ± 0.4 |
| AAAAAAAAGAAACACACACACATACACATAAATATA [CACACA_site3807] | 8.79 ± 0.47 |
| AACATTATTTTGTGTACACATTCGGTTATATTATAT [CACACA_site5628] | 9.15 ± 0.37 |
| TTTTTTATTTTATTTTATTTTTATTTTTTTTTTTTT [GTGCAC_negctrl_site596] | 8.21 ± 0.47 |
| ATAAAATACATATAAACACACATATAAACCGACATA [CACACA_site2477] | 8.9 ± 0.43 |
| TTTTACTTAAGACACACACACACAAAAAAAAAAAAA [CACACA_site6573] | 8.46 ± 0.59 |
| TAAACATAAATATGCACACATATACAGATATTCATA [CACACA_site5471] | 8.29 ± 0.4 |
| AGTTTTTACTCTAATGGTACAGTGCAACTAATAAAT [XGTACX_site6950] | 8.55 ± 0.099 |
| ATATATTCCATAAAGGTGCTGTTAACGTGTCAACGT [GTGCAC_site9402] | 8.62 ± 0.23 |
| TTTATGTAAAAATATAGTACATATTAAAAGATAAGA [XGTACX_site8134] | 8.71 ± 0.35 |
| TAAGTATACACATACACACACACACTAAAAAAAAAA [CACACA_site6337] | 8.6 ± 0.51 |
| TATTTTCCCTCCATATGTACTTAATTATAAGCACAT [XGTACX_site4000] | 8.61 ± 0.33 |
| TTATATTCTATTTATTGTACTTAAATATATATATAT [XGTACX_site6400] | 9.69 ± 0.16 |
| AAAAAAAAAATATACACACACACATACACATAAATA [CACACA_site3808] | 8.79 ± 0.53 |
| ATATATATCTTTTGTGTGCACATATATATAATATAT | 8.97 ± 0.24 |
| TATATATCGCATAAAACACACAAAAAAAAAATTAAA [CACACA_site7767] | 8.35 ± 0.59 |
| AAACGAAAAAAATGGTGTACATTAAAATGAAAATTG [XGTACX_site7040] | 8.84 ± 0.2 |
